# Results: PubChem BioAssay (NCATS)
# Inconclusive means that the source gave no clear call. Such entries were picked first, then a sample of the others. For some of these results: Potencies of inconclusive entries are left out as doubtful fits. Calls of active or inactive are those of the source. Unless noted, the call rests on the fitted dose curve; in most records, active means well fitted curve in the direction sought with a large enough effect; inconclusive means small, poorly fitted or top-dose-only effect, or another doubt; inactive means no such curve, though single readings can be large; an effect the other way counts as inactive or inconclusive.
# Tests used:
# [1] = system: Zika virus NS2B-NS3 protease (linked construct); assay: Primary screen NINDS Rhodamine qHTS for Zika virus inhibitors (AID 1347160); further: nearly all actives have a fitted effect of over 55% in size
# In short: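 Purified linked NS2B-NS3 protease (NS2B hydrophilic domain joined to NS3 protease by flexible linker), 25 nM in 10 mM Tris-HCl pH 8.0, 0.01% Tween 20. Compounds titrated, 15 min preincubation at room temperature; 1.5 microM Rhodamine110 substrate, FITC fluorescence change over 15 min.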
# [2] = Primary fluorescence-based thiol-reactive (MSTI) qHTS assay for identification of artifact compounds. (AID 1845221);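 further: thiol-reactive compounds lower the probe fluorescence signal; nearly all actives have a fitted effect of over 65% in size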
# In short: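 In PBS pH 7.4 with 2% DMSO, each compound met 4 uM MSTI for one hour at ambient temperature, shielded from light, before fluorescence detection.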
# CAOV3 = assay: Primary qHTS to identify gynecologic anti-cancer compounds using libraries of approved drugs and bioactive compounds (AID 1345084); settings: Gynecologic cancer cell panel viability, ATPlite luminescence, 48 h; series mostly up to 57.5 µM; further: nearly all actives have a fitted effect of over 55% in size
# In short: (§1)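 Five-concentration response, 48 h; readout is ATP-driven luciferase luminescence.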
# HeLa = assay: as above; settings: Gynecologic cancer cell panel viability, ATPlite luminescence, 48 h; series mostly up to 57.5 µM
# In short: as §1
# SKOV3 = assay: as above; settings: Gynecologic cancer cell panel viability, ATPlite luminescence, 48 h; series mostly up to 57.5 µM
# In short: as §1
# [3] = molecular target: Luciferin 4-monooxygenase (Photinus pyralis) (UniProt P08659); assay: Primary firefly luciferase (FLuc) qHTS assay for identification of artifact compounds. (AID 1845220); further: potency means the concentration at half of the fitted maximal effect; nearly all actives have a fitted effect of over 60% in size
# In short: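 Compounds sat 15 min at room temperature with 10 uM luciferin and 10 uM ATP (pH 7.6 Tris acetate). Firefly luciferase (10 nM final) was then added, and luminescence was read 5 min later. Data normalized to no-enzyme and DMSO controls were Hill-fitted.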
# Es-2 = assay: Primary qHTS to identify gynecologic anti-cancer compounds using libraries of approved drugs and bioactive compounds (AID 1345084); settings: Gynecologic cancer cell panel viability, ATPlite luminescence, 48 h; series mostly up to 57.5 µM; further: nearly all actives have a fitted effect of over 55% in size
# In short: as §1
# [4] = P-glycoprotein substrates identified in KB-8-5-11 adenocarcinoma cell line, qHTS therapeutic library screen (AID 1346987); settings: activity change, negative = cytotoxicity: at 44.5 µM (top of the series); further: potency means the concentration at half of the fitted maximal effect; nearly all actives have a fitted effect of over 65% in size
# In short: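 KB-8-5-11: colchicine-selected sub-line of KB-3-1 over-expressing P-gp; assay medium lacked colchicine. 72 h drug exposure at 37 degree C, CellTiter-Glo.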
# [5] = qHTS of pediatric cancer cell lines to identify multiple opportunities for drug repurposing: Primary screen for NB-EBc1 cells (AID 1347095)
# In short: (§2)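 Cells seeded at 500-1,000 cells/well in growth media, rested 5 hours at 37 degrees C, 5% CO2, then dosed; MIPE compounds at 11-point (from 0.78 nM) and NPC at 8-point (from 0.59 nM) final concentrations. Viability by CellTiter-Glo luminescence after 48 hours.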
# [6] = qHTS of pediatric cancer cell lines to identify multiple opportunities for drug repurposing: Primary screen for Saos-2 cells (AID 1347097); settings: Saos-2 viability, CellTiter-Glo ATP luminescence, 48 h; activity change, negative = cytotoxic: at 46 µM (top of the series); further: nearly all actives have a fitted effect of over 40% in size
# In short: as §2
# [7] = qHTS of pediatric cancer cell lines to identify multiple opportunities for drug repurposing: Primary screen for RD cells (AID 1347104); further: nearly all actives have a fitted effect of over 55% in size
# In short: as §2
# [8] = molecular target: Protein phosphatase 1D (Homo sapiens) (UniProt O15297); assay: Rhodamine-PBP qHTS Assay for Modulators of WT P53-Induced Phosphatase 1 (WIP1) (AID 1347425); further: potency means the concentration at half of the fitted maximal effect
# In short: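 Read-out: Rhodamine-PBP fluorescence (ex 525/em 598 nm) for released Pi, read each minute for 11 min after adding 10 uM VEPPL-pS-QETFS; signal taken as f1 minus pre-substrate f0. Enzyme 5 nM WIP1 with 1 hr room-temperature compound preincubation.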
# [9] = Primary qHTS for small molecule stabilizers of the endoplasmic reticulum resident proteome: Secreted ER Calcium Modulated Protein (SERCaMP) assay (AID 1508630); settings: SH-SY5Y GLuc-SERCaMP (Gaussia luciferase released on ER calcium loss) secretion, thapsigargin, luminescence; series mostly up to 38.4 µM; further: potency means the concentration at half of the fitted maximal effect
# In short: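 GLuc-SERCaMP-expressing SH-SY5Y cells, pretreated 16 h with compound, are challenged with thapsigargin to empty ER calcium stores; after 4 h, coelenterazine is added directly to the medium and luminescence is imaged.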
# [10] = molecular target: Cytochrome P450 2C9 (Homo sapiens) (UniProt P11712); assay: Cytochrome P450 family 2 subfamily C member 9 (CYP2C9) small molecule antagonists: luciferase biochemical (cell-free) qHTS assay (AID 1645842; active means well fitted curve in the direction sought with a large enough effect in the repeat runs; inconclusive means weak or mixed curves; inactive means no such curve, though single readings can be large; an effect the other way counts as inactive or inconclusive)
# In short: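 Luminescence, after 20 min with luciferin detection reagent, reflected CYP2C9 turnover during a 1 h NADPH-driven reaction at 37C. Enzyme-substrate mix contained 0.4% bovine serum albumin and was preincubated with compound 10 min at room temperature.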
# Hek293T = assay: Primary qHTS to identify gynecologic anti-cancer compounds using libraries of approved drugs and bioactive compounds (AID 1345084); settings: Gynecologic cancer cell panel viability, ATPlite luminescence, 48 h, control line for the selectivity index; series mostly up to 57.5 µM; further: nearly all actives have a fitted effect of over 55% in size
# In short: as §1
# OV90 = assay: as above; settings: Gynecologic cancer cell panel viability, ATPlite luminescence, 48 h; series mostly up to 57.5 µM
# In short: as §1
# Tags describe the fitted curve by direction and shape.
# Sequence of UniProt O15297 (O15297 whole entry, looked up): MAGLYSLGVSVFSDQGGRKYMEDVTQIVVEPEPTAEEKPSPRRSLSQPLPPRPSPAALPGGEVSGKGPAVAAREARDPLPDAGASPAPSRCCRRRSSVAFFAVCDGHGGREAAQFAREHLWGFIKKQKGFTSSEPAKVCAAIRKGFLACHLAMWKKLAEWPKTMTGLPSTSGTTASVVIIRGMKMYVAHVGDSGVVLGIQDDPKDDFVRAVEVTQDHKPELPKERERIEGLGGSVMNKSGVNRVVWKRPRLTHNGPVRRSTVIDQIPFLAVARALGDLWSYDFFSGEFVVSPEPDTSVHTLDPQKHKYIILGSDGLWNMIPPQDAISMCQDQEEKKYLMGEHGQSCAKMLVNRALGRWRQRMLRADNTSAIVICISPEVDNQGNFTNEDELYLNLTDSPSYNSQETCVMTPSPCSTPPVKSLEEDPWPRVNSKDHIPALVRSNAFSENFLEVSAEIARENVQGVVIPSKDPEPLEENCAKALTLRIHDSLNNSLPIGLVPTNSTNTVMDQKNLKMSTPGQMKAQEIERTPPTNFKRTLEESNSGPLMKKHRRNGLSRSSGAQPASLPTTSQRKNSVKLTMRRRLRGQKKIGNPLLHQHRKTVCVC
# Sequence of UniProt P11712 (P11712 whole entry, looked up): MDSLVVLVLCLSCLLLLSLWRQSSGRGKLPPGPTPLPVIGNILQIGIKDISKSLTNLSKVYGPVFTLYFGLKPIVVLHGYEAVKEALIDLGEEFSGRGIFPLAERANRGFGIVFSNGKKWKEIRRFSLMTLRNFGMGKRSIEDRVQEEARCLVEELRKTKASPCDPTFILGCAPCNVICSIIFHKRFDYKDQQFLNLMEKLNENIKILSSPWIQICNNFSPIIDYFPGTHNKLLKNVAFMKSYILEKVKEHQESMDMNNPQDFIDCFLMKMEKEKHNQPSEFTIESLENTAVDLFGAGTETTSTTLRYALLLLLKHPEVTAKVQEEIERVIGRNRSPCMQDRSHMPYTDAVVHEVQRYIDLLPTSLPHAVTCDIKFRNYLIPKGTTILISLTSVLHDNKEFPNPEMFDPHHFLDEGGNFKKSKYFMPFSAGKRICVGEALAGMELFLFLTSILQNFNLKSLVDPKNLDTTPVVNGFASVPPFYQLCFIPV
compound,measurement,setting,value
C=CC[C@]12C[C@@H](OC)C(=O)C(OC)=C1O[C@@H](c1cc(OC)c3c(c1)OCO3)[C@@H]2C,Potency,[1],inactive
same,Potency,[2],inactive
same,Potency,CAOV3,inactive
same,Potency,HeLa,inactive
same,Potency,SKOV3,inactive
COc1c2c(c(C)c3c1C(=O)OC3)O[C@@]1(C)CCC3(C(C)(C)O)OC(=O)CC[C@]3(C)[C@H]1C2 (some centres not stated),Potency,[3],"inconclusive [inhibitor, single point]"
same,Potency,CAOV3,inactive
same,Potency,Es-2,inactive
same,Potency,HeLa,inactive
COCCOc1ccc(N2CCN(CCn3ncc4c3nc(N)n3nc(-c5ccco5)nc43)CC2)cc1,Potency,[4],"inconclusive [inhibitor, full curve]"
same,Potency,CAOV3,inactive
same,Potency,HeLa,inactive
O=C(O)Cn1c(=O)n(Cc2ccc(Br)cc2F)c(=O)c2ccc(Cl)cc21,Potency,[5],inactive
same,Potency,[6],inactive
same,Potency,[7],inactive
same,Potency,[8],"inconclusive [inhibitor, partial curve, poor fit]"
same,Potency,[9],"inconclusive [inhibitor, partial curve, poor fit]"
same,Potency,[10],"inconclusive [inhibitor, partial curve]"
same,Potency,CAOV3,inactive
same,Potency,Hek293T,inactive
same,Potency,OV90,inactive
same,Potency,SKOV3,inactive
